# Experimental data from the supplement of paper PMC9135407.
# “And” between values parts separate entries of the source, which are not always exact repeats. Identical values can stand only once. Counter-ions that a name gives are not always drawn. The whole screen tested about 5,800 compounds, of which about 620 (11%) showed activity.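 Rule for the calls: active = score above a cut-off or among the top three wells of a plate; in these data no inactive exceeds 0.85.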 The entries are a selection whose mix differs from that of the whole data set.
# System: primary human hepatic stellate cells (donor 1)
# Assay: scaled lipid accumulation score (0 = DMSO-like, 1 = nortriptyline-like); higher = stronger HSC inactivation (lipid re-accumulation), active = hit call of the paper
# Conditions: 48 h
# [1] = library stock concentration: 3.33 mM
# [2] = library stock concentration: 10 mM
# [3] = library stock concentration: 400 uM
# [4] = library stock concentration: 2 mM
# [5] = library stock concentration: 80 uM
# [6] = library stock concentration: 1 mM
smiles,measurement,setting,value
NC(=O)[C@@H](CCC(F)(F)F)N(Cc1ccc(-c2ncon2)cc1F)S(=O)(=O)c1ccc(Cl)cc1,scaled lipid accumulation score,[1],inactive: ≤ 0
same,scaled lipid accumulation score,[2],inactive: ≤ 0
O=C(O)CCC/C=C\C[C@@H]1[C@@H](/C=C/[C@H](O)C2Cc3ccccc3C2)[C@@H](F)C[C@@H]1O,scaled lipid accumulation score,[2],inactive: ≤ -0.07
COc1ccc(CNCc2cccc3ccccc23)cc1,scaled lipid accumulation score,[1],inactive: 0.023
same,scaled lipid accumulation score,[2],inactive: 0.491
N#CC(=C(/N)Sc1ccccc1N)/C(C#N)=C(\N)Sc1ccccc1N,scaled lipid accumulation score,[1],inactive: ≤ 0
same,scaled lipid accumulation score,[2],inactive: ≤ 0
CC1=C(C(=O)O)N2C(=O)[C@@H](NC(=O)[C@H](N)c3ccc(O)cc3)[C@H]2SC1 [Cefadroxil],scaled lipid accumulation score,,inactive: ≤ 0
same,scaled lipid accumulation score,[2],inactive: ≤ 0
Nc1nc(Nc2ccc(S(N)(=O)=O)cc2)nn1C(=O)c1c(F)cccc1F,scaled lipid accumulation score,[3],inactive: ≤ -0.005
same,scaled lipid accumulation score,[4],inactive: ≤ -0.005
same,scaled lipid accumulation score,[1],inactive: 0.046
same,scaled lipid accumulation score,[2],inactive: ≤ 0 and inactive: ≤ -0.005
CC(C)c1onc(-c2c(Cl)cccc2Cl)c1COc1ccc(/C=C/c2cccc(C(=O)O)c2)c(Cl)c1,scaled lipid accumulation score,[1],inactive: ≤ 0
same,scaled lipid accumulation score,[2],inactive: ≤ 0 and inactive: 0.025
C[C@@]1(O)[C@H](O)[C@@H](CO)O[C@H]1n1cnc2c(NC3CCCC3)nc(Cl)nc21,scaled lipid accumulation score,[2],inactive: 0.013
C=CCN1CCCC1CNC(=O)c1cc2nn[nH]c2cc1OC (stereo not given) [Alizapride HCl],scaled lipid accumulation score,,inactive: ≤ 0
same,scaled lipid accumulation score,[1],inactive: ≤ 0
same,scaled lipid accumulation score,[2],inactive: ≤ -0.001
CC(C)N(CCCNC(=O)Nc1ccc(C(C)(C)C)cc1)C[C@H]1O[C@@H](n2cc(Br)c3c(N)ncnc32)[C@H](O)[C@@H]1O,scaled lipid accumulation score,[2],active: 1.12
NC(=O)C1(N2CCCCC2)CCN(CCCC(=O)c2ccc(F)cc2)CC1,scaled lipid accumulation score,[2],inactive: ≤ 0
CNC1(C)C2CCC(C2)C1(C)C (stereo not given) [Mecamylamine hydrochloride],scaled lipid accumulation score,,inactive: 0.017
same,scaled lipid accumulation score,[2],inactive: 0.459
CNC1(C)C2CCC(C2)C1(C)C (stereo not given) [Mecamylamine HCl],scaled lipid accumulation score,library stock concentration: 12 mM,inactive: ≤ -0.006
Cc1c(Cn2c(C)nc3c(C(=O)O)cc(N4CCOCC4)cc32)cccc1C(F)(F)F,scaled lipid accumulation score,[5],inactive: ≤ 0
same,scaled lipid accumulation score,[3],inactive: 0.007
same,scaled lipid accumulation score,[4],inactive: ≤ 0
same,scaled lipid accumulation score,[1],inactive: ≤ -0.009
same,scaled lipid accumulation score,[2],inactive: 0.228 and inactive: ≤ 0
CCCCCCCCCCCCCCCC[N+](C)(C)C [Cetrimonium bromide],scaled lipid accumulation score,[2],inactive: 0.737
CCCCCCCCCCCCCCCC[N+](C)(C)C [Cetrimonium Bromide (CTAB)],scaled lipid accumulation score,[1],inactive: ≤ 0
same,scaled lipid accumulation score,[2],inactive: 0.624
O=C(NCc1ccc(Oc2ccccc2)cc1)c1nc(-c2cc(Br)c(O)c(Br)c2)no1,scaled lipid accumulation score,[1],inactive: ≤ -0.009
same,scaled lipid accumulation score,[2],inactive: ≤ 0
CC(=C(CCO)SSCC1CCCO1)N(C=O)Cc1cnc(C)nc1N (stereo in doubt) [Fursultiamine Hydrochloride],scaled lipid accumulation score,,inactive: ≤ 0
C[C@@H]1CC2C3C[C@H](F)C4=CC(=O)C=C[C@]4(C)[C@@]3(F)[C@@H](O)C[C@]2(C)[C@@]1(O)C(=O)COC(=O)C(C)(C)C (stereo not given in full) [Flumethazone pivalate],scaled lipid accumulation score,library stock concentration: 4 mM,inactive: 0.012
same,scaled lipid accumulation score,[2],inactive: ≤ 0
CCC(C)(CN(C)C)OC(=O)c1ccccc1 (stereo not given) [Amyleine hydrochloride],scaled lipid accumulation score,,inactive: 0.054
O=C(O)C=CC(=O)O.OCCOCCN1CCN(C2=Nc3ccccc3Sc3ccccc32)CC1.OCCOCCN1CCN(C2=Nc3ccccc3Sc3ccccc32)CC1 [Quetiapine Fumarate],scaled lipid accumulation score,[2],active: 1.06
O=C(/C=C/c1ccc(/C=C/C(=O)Nc2ccc(C3=NCCN3)cc2)cc1)Nc1ccc(C2=NCCN2)cc1 [GW 4869 (hydrochloride hydrate)],scaled lipid accumulation score,[6],inactive: 0.115
C=C(NC(=O)C(=C)NC(=O)c1csc(C2=N[C@@H]3c4csc(n4)[C@H]4NC(=O)c5csc(n5)[C@H]([C@](C)(O)[C@@H](C)O)NC(=O)[C@H]5CSC(=N5)/C(=C/C)NC(=O)[C@H]([C@@H](C)O)NC(=O)c5csc(n5)[C@]3(CC2)NC(=O)[C@H](C)NC(=O)C(=C)NC(=O)[C@H](C)NC(=O)[C@H]([C@@H](C)CC)N[C@@H]2C=Cc3c([C@H](C)O)cc(nc3[C@H]2O)C(=O)O[C@@H]4C)n1)C(N)=O [Thiostrepton],scaled lipid accumulation score,,active: 1.19
CC(C)C[C@@H](/C=C/S(C)(=O)=O)NC(=O)[C@H](CC(C)C)NC(=O)[C@H](CC(C)C)NC(=O)OCc1ccccc1,scaled lipid accumulation score,library stock concentration: 9.1 mM,inactive: 0.738
CCCc1nc(C(C)(C)O)c(C(=O)OCc2oc(=O)oc2C)n1Cc1ccc(-c2ccccc2-c2nnn[nH]2)cc1 [Olmesartan medoxomil],scaled lipid accumulation score,library stock concentration: 3.6 mM,inactive: ≤ 0
same,scaled lipid accumulation score,[2],inactive: 0.287
CCCc1nc(C(C)(C)O)c(C(=O)OCc2oc(=O)oc2C)n1Cc1ccc(-c2ccccc2-c2nnn[nH]2)cc1,scaled lipid accumulation score,[2],inactive: ≤ 0
CCCc1nc(C(C)(C)O)c(C(=O)OCc2oc(=O)oc2C)n1Cc1ccc(-c2ccccc2-c2nnn[nH]2)cc1 [Olmesartan Medoxomil],scaled lipid accumulation score,[1],inactive: ≤ 0
same,scaled lipid accumulation score,[2],inactive: ≤ 0
Cn1c(=O)c2c(ncn2CC(O)CO)n(C)c1=O (stereo not given) [Dyphylline],scaled lipid accumulation score,[1],inactive: ≤ 0
same,scaled lipid accumulation score,library stock concentration: 7.9 mM,inactive: 0.001
same,scaled lipid accumulation score,[2],inactive: ≤ 0
Cn1c(=O)c2c(ncn2CC(O)CO)n(C)c1=O (stereo not given) [Diprophylline],scaled lipid accumulation score,,inactive: ≤ 0
Nc1nccs1 [Aminothiazole],scaled lipid accumulation score,[1],inactive: ≤ 0
same,scaled lipid accumulation score,[2],inactive: ≤ -0.001 and inactive: ≤ -0.027
NC(=O)c1cccnc1 [Nicotinamide (Vitamin B3)],scaled lipid accumulation score,[1],inactive: ≤ 0
same,scaled lipid accumulation score,[2],inactive: ≤ 0
NC(=O)c1cccnc1 [Niacinamide],scaled lipid accumulation score,library stock concentration: 16.4 mM,inactive: ≤ 0
NC(=O)c1cccnc1,scaled lipid accumulation score,[2],inactive: ≤ 0
CCOC(=O)CCNc1cc(N2CCc3ccccc3CC2)nc(-c2ccccn2)n1,scaled lipid accumulation score,[5],inactive: ≤ 0
same,scaled lipid accumulation score,[3],inactive: ≤ 0
same,scaled lipid accumulation score,[4],inactive: ≤ 0
same,scaled lipid accumulation score,[1],inactive: ≤ 0
same,scaled lipid accumulation score,[2],inactive: 0.064 and inactive: ≤ 0
COc1ccc2[nH]c([S+]([O-])Cc3ncc(C)c(OC)c3C)nc2n1 (stereo not given) [Tenatoprazole],scaled lipid accumulation score,library stock concentration: 5.8 mM,inactive: 0.081
Cc1cc(=O)oc2c(C=O)c(O)ccc12,scaled lipid accumulation score,[1],inactive: ≤ -0.009
same,scaled lipid accumulation score,[2],inactive: 0.302
CN(C)CCOC(c1ccccc1)c1ccccc1 [Diphenhydramine hydrochloride],scaled lipid accumulation score,,inactive: 0.459
same,scaled lipid accumulation score,library stock concentration: 6.9 mM,inactive: 0.166
same,scaled lipid accumulation score,[2],inactive: ≤ 0 and inactive: 0.31
CN(C)CCOC(c1ccccc1)c1ccccc1 [Diphenhydramine HCl],scaled lipid accumulation score,[1],inactive: 0.102
same,scaled lipid accumulation score,library stock concentration: 7.8 mM,inactive: 0.192
same,scaled lipid accumulation score,[2],inactive: 0.084
CN(C)CCOC(c1ccccc1)c1ccccc1,scaled lipid accumulation score,[2],inactive: 0.458
CN1CCCC(CC2c3ccccc3Sc3ccccc32)C1.Cl.O (stereo not given) [Metixene hydrochloride],scaled lipid accumulation score,,active: 1.12
N.N.N.N.N.N.N.N.N.N.N.N.N.N.O.O.[Cl-].[Cl-].[Cl-].[Cl-].[Cl-].[Cl-].[Ru+4].[Ru+5].[Ru+5] [Ruthenium red],scaled lipid accumulation score,[2],inactive: ≤ 0
CN1CCC(c2c(O)cc(O)c3c(=O)cc(-c4ccccc4Cl)oc23)C1CO (stereo not given) [Riviciclib],scaled lipid accumulation score,[5],inactive: 0.019
same,scaled lipid accumulation score,[3],inactive: 0.272
same,scaled lipid accumulation score,[4],inactive: ≤ -0.001
same,scaled lipid accumulation score,[2],inactive: 0.002
Cn1cc(CNCC2CCN(c3ncc(C(=O)NO)cn3)CC2)c2ccccc21,scaled lipid accumulation score,[1],inactive: 0.478
CC(=O)[C@H]1CC[C@H]2[C@@H]3CCC4=CC(=O)CC[C@]4(C)[C@H]3CC[C@]12C [Progesterone],scaled lipid accumulation score,,inactive: 0.281
same,scaled lipid accumulation score,[1],inactive: 0.022
same,scaled lipid accumulation score,library stock concentration: 6.4 mM,inactive: 0.529 and inactive: 0.188
same,scaled lipid accumulation score,[2],inactive: ≤ 0 and inactive: 0.362
CC(=O)[C@H]1CC[C@H]2[C@@H]3CCC4=CC(=O)CC[C@]4(C)[C@H]3CC[C@]12C,scaled lipid accumulation score,[2],inactive: 0.22
OC(CN1CCC(Cc2ccc(F)cc2)CC1)c1ccc(Cl)cc1 (stereo not given) [Eliprodil],scaled lipid accumulation score,[2],inactive: 0.268 and inactive: 0.657
NC(Cc1cc(I)c(Oc2cc(I)c(O)c(I)c2)c(I)c1)C(=O)O (stereo not given) [Thyroxine (L)],scaled lipid accumulation score,,inactive: 0.125
NC(Cc1cc(I)c(Oc2cc(I)c(O)c(I)c2)c(I)c1)C(=O)O (stereo not given) [Thyroxine],scaled lipid accumulation score,[2],inactive: ≤ 0
CC(NC(=O)Cc1cc(F)cc(F)c1)C(=O)NC(C(=O)OC(C)(C)C)c1ccccc1 (stereo not given),scaled lipid accumulation score,[1],inactive: ≤ 0
same,scaled lipid accumulation score,[2],inactive: ≤ 0
C[C@]12CC[C@@H]3c4ccc(O)cc4CC[C@H]3[C@@H]1CC[C@@H]2O,scaled lipid accumulation score,[2],inactive: ≤ 0
C[C@]12CC[C@@H]3c4ccc(O)cc4CC[C@H]3[C@@H]1CC[C@@H]2O [Estradiol-17 beta],scaled lipid accumulation score,,inactive: 0.337
C[C@]12CC[C@@H]3c4ccc(O)cc4CC[C@H]3[C@@H]1CC[C@@H]2O [Estradiol],scaled lipid accumulation score,[1],inactive: ≤ 0
same,scaled lipid accumulation score,library stock concentration: 7.3 mM,inactive: 0.061 and inactive: 0.087
same,scaled lipid accumulation score,[2],inactive: ≤ 0
same,scaled lipid accumulation score,library stock concentration: 18.4 mM,inactive: 0.222
C[C@]12CC[C@@H]3c4ccc(O)cc4CC[C@H]3[C@@H]1CC[C@@H]2O [beta-Estradiol],scaled lipid accumulation score,[2],inactive: 0.557
CCCCCCCCCCCCCCCCOC[C@H](COP(=O)([O-])OCC[N+]1(C)CCCC1)OC(C)=O [Pyrrolidino PAF C-16],scaled lipid accumulation score,[6],inactive: ≤ 0
Cc1c(NC(=O)N2CCOCC2)ccc2c1c1ccccc1n2C(C)C,scaled lipid accumulation score,[2],inactive: ≤ 0
CCCN(CCC)S(=O)(=O)c1ccc(C(=O)O)cc1 [Probenecid],scaled lipid accumulation score,,inactive: ≤ 0
same,scaled lipid accumulation score,[1],inactive: ≤ 0
same,scaled lipid accumulation score,library stock concentration: 7 mM,inactive: 0.027
same,scaled lipid accumulation score,[2],inactive: ≤ -0.001 and inactive: ≤ 0
CCCN(CCC)S(=O)(=O)c1ccc(C(=O)O)cc1,scaled lipid accumulation score,[2],inactive: ≤ 0
CCNC(=O)Nc1ccc(-c2nc3c(c(N4CCOC[C@@H]4C)n2)CCN(C2COC2)C3)cc1,scaled lipid accumulation score,[1],inactive: ≤ -0.009
same,scaled lipid accumulation score,[2],inactive: 0.169
